Experimental data taken from the supplement of paper PMC3334620.
Over roughly 33,000 sequences, “E-score (-0.5 to 0.5)” has its median near -0.053; the highest 2% begin near 0.37. This is one part of the list.

What follows are sequences tested against Hap1 (UniProt P0CE41) (assay: PBM E-score (8-mer binding enrichment) (E-score (-0.5 to 0.5)); higher = stronger / more preferred TF binding; most listed sequences are background and not binding sites). Conditions: protein concentration: 200 nM; construct: GST-DNA-binding domain.
Experimental: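 Universal 'all 10-mer' protein binding microarrays (Agilent AMADID 015681) probed with GST-tagged S. cerevisiae TFs (full-length or DBD) made by in vitro transcription/translation (PURExpress), about 100-200 nM. Bound TF was detected with fluorescent anti-GST. Each ungapped 8-mer (which stands for itself and its reverse complement) is scored by the PBM enrichment score (E-score), a modified Wilcoxon-Mann-Whitney statistic from -0.5 to +0.5, computed with the Universal PBM Analysis Suite. Scale: above 0.35 generally sequence-specific binding.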

UniProt P0CE41, sequence (P0CE41 whole entry, the tested form may be a part): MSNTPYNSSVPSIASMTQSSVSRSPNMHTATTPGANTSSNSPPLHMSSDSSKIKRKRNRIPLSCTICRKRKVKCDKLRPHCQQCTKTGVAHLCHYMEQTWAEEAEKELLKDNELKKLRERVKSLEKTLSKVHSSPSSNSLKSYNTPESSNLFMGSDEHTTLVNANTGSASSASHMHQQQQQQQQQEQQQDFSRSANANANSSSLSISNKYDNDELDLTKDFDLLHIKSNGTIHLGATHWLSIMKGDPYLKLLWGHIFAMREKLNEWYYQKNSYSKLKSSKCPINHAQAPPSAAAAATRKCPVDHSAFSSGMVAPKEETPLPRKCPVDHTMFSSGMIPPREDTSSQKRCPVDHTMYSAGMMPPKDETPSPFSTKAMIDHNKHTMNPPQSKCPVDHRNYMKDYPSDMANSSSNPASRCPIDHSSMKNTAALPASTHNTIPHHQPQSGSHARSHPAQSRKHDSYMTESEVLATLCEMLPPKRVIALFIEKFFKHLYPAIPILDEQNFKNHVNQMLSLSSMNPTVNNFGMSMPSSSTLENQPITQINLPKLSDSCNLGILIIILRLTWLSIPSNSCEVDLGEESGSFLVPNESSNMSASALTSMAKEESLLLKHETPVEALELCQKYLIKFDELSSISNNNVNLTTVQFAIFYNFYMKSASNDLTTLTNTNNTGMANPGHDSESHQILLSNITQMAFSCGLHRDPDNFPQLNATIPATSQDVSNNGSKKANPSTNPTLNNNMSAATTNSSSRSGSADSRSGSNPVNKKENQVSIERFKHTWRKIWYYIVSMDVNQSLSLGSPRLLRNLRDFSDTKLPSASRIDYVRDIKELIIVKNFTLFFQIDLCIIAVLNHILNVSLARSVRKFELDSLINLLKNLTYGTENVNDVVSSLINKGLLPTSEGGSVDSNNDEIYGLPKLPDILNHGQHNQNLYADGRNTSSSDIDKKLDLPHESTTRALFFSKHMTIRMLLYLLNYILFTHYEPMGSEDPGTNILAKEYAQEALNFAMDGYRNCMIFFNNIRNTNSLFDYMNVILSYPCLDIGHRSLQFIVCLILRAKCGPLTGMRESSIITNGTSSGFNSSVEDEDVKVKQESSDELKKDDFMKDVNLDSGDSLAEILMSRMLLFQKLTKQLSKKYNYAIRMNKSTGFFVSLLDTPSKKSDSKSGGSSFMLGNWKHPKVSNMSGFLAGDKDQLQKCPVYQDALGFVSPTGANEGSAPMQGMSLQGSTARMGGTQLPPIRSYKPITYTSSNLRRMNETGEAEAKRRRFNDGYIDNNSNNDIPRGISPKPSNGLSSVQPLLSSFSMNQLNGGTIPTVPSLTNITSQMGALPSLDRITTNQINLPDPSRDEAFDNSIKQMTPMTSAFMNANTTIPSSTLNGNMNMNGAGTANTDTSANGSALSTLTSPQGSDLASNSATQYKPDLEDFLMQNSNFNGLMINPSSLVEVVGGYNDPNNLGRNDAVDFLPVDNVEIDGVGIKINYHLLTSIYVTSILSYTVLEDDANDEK

Row | Sequence | PBM E-score
1 | AGCCGGTC | 0.0184
2 | CCAGAGAA | -0.216
3 | GCAACTGC | -0.0498
4 | ACTTGGGG | -0.126
5 | AATGCCCA | -0.257
6 | ATCTCGGC | 0.379
7 | GCCCATTA | -0.17
8 | CAAAAAAC | -0.168
9 | GACAAACC | 0.00912
10 | ACAATAAG | -0.0552
11 | CGTTCCAG | -0.157
12 | TACAGAGA | -0.238
13 | ACGCCCCA | 0.12
14 | CTTCTTGC | -0.108
15 | GGGAAGCA | 0.0388
16 | CGCCAGCC | 0.124
17 | ACACTGGC | -0.167
18 | CGGCGGAC | 0.38
19 | AATGTACG | -0.115
20 | AAGACAAT | 0.0491
21 | CCTTCTAC | -0.124
22 | AGTATAGA | 0.0547
23 | ACAGTTCC | 0.214
24 | GTGCTTCA | -0.177
25 | CGCGGCCG | 0.27

Row | Sequence | PBM E-score
26 | ATTCGGAG | 0.299
27 | CCTTGTAG | -0.258
28 | CATAATGA | -0.116
29 | GGGCCCGA | 0.317
30 | GAAGTCAC | -0.0647
31 | CTCTCAAG | -0.109
32 | ATTGTGCA | -0.151
33 | ATCGACTG | 0.0105
34 | TATTTACA | -0.145
35 | CTCCCCCC | -0.0554
36 | AGCTCTTC | 0.0747
37 | CAGCAACA | -0.13
38 | ATCAATCG | -0.0657
39 | AGGCACCC | -0.17
40 | CCGGGCAC | 0.355
41 | CGATGGTC | -0.0737
42 | CGTCAACA | -0.129
43 | AGCTTAGA | -0.00759
44 | AGGTGATA | -0.163
45 | CAAGAGTG | -0.163
46 | TACGAAGA | -0.183
47 | AGCTTACT | -0.208
48 | AAGGCAGC | -0.105
49 | ACATATTG | -0.253
50 | CACCCGGG | 0.312

Row | Sequence | PBM E-score
51 | CCAGAAAG | -0.06
52 | CGGGAGCC | 0.00882
53 | CCTGTCCG | 0.193
54 | CCTGCTTC | -0.0515
55 | CATATGCA | -0.19
56 | GGAAGGCC | 0.103
57 | GTGCAAAC | -0.104
58 | ACCCAAAG | -0.225
59 | GTGTAGCA | -0.275
60 | ATGGTCTG | -0.23
61 | CATTCGAA | -0.131
62 | ATTCGTTG | 0.059
63 | GATGGGAC | 0.142
64 | GATGTAAC | 0.0571
65 | TCACTCAA | -0.25
66 | AAACGGGC | 0.123
67 | GCTTACCC | -0.0374
68 | ATATTTCG | 0.235
69 | AAGTATGC | -0.221
70 | ATGCCGTC | 0.128
71 | GCTTAATA | -0.00293
72 | AACACTCC | 0.0969
73 | AAAGCTCC | 0.0556
74 | ACCCGCTG | 0.126
75 | CCCCGGCG | 0.309

Row | Sequence | PBM E-score
76 | AACGGGTG | 0.29
77 | CTCCGACC | 0.359
78 | CAACTCCG | 0.398
79 | AGCTAAGC | -0.0745
80 | ATCCGCAA | 0.203
81 | CTCTTGCC | -0.0922
82 | AACGTAGA | -0.0629
83 | TCCGACAA | 0.35
84 | CCTGCCAC | -0.207
85 | TCAAAACA | -0.149
86 | CTTTTCGC | 0.234
87 | AATTTGTC | -0.0649
88 | ATGCTCTA | -0.152
89 | TATAAGAA | 0.0514
90 | CGGGTGAG | 0.201
91 | GAATGAAA | -0.0251
92 | CTTATAAG | 0.0651
93 | ACTAGATG | -0.293
94 | CGGTGTCA | 0.0418
95 | AGCGCAAG | -0.26
96 | CTCCGTCA | 0.175
97 | AGTGGGTC | -0.0315
98 | AGGTTGCC | -0.0212
99 | AATCTGCT | -0.00039
100 | AGGCACCT | -0.00315

Row | Sequence | PBM E-score
101 | CCTGGCCC | 0.041
102 | CTCAATCA | -0.0389
103 | ACGTAACG | 0.0629
104 | CTAAGTAA | -0.121
105 | AGCGTAAC | -0.0061
106 | GACGAGTC | -0.198
107 | CCGTTACG | 0.341
108 | AAAGTTGG | -0.224
109 | TAATGATA | 0.0702
110 | GGTGCCAC | -0.121
111 | AAAATGAT | 0.0731
112 | CTTTCCCA | -0.0926
113 | ACGCTCTA | -0.14
114 | CGCTGCGA | -0.0742
115 | CACATAAG | -0.0891
116 | GCAAAGGC | -0.165
117 | CACCGGGA | 0.261
118 | AGTATACT | -0.245
119 | ATTAGAAA | -0.0503
120 | ACGCCGAT | 0.29
121 | AGCCAACT | -0.262
122 | GAGCGTAA | 0.0168
123 | GGAAGACC | 0.0832
124 | AACTGATT | -0.2
125 | AGCGTGCG | 0.087

Row | Sequence | PBM E-score
126 | CCATATAA | -0.203
127 | AATACGAA | 0.00441
128 | GTAGAAGA | -0.122
129 | CATTTAGC | -0.0732
130 | CCGCCCTA | -0.00915
131 | GAAGAGAC | 0.107
132 | AACAGCTA | -0.0549
133 | CACAACCC | -0.138
134 | GCCAGGAC | -0.134
135 | TAGGGACA | 0.0204
136 | GGAAGAAA | 0.0328
137 | AAGAAGGG | -0.295
138 | CCCTTTGA | -0.179
139 | ATATAACC | 0.144
140 | GCCGCACA | -0.0419
141 | AAACCTAG | -0.165
142 | GCAGCCCA | -0.212
143 | AGTTTGGA | -0.274
144 | AAAATATA | 0.0476
145 | ATGCAAGG | -0.12
146 | GAGCCAAA | -0.026
147 | TCAACTCA | -0.172
148 | AATCAGGT | 0.0335
149 | AAGTTCAA | 0.0648
150 | AATCTCCC | 0.00843

Row | Sequence | PBM E-score
151 | AGCTACCA | -0.185
152 | GATTTGCC | 0.112
153 | CTATAAAG | 0.00027
154 | GACCGTGA | 0.0518
155 | AAAGCAAA | -0.0867
156 | CACCCATC | -0.0437
157 | CTGTGGCC | 0.0162
158 | AGCTGTTC | -0.097
159 | AAACAGGT | -0.189
160 | CAATTAAG | 0.0131
161 | ACGAATGG | 0.0399
162 | AATGCGCT | -0.108
163 | CAACGCTA | -0.115
164 | CTTTGGGC | 0.118
165 | CGCAACCA | 0.0242
166 | GCTAACCC | 0.0709
167 | CCCAGCAA | -0.0975
168 | ATAGCTAG | -0.302
169 | CGAGAGGA | -0.0655
170 | GTCAAGGA | -0.0786
171 | CATTGCAG | -0.271
172 | CGACGGTA | 0.148
